Out of some 390,000 compounds screened, about 4,700 (1.2%) were called active. The inconclusive results got no clear call from the source; some entries with a clear call stand among them for comparison. Calls follow the shape of the dose curve; as a rule, active = well fitted inhibition curve with a large enough effect; inconclusive = small, poorly fitted or top-dose-only effect, or another doubt; inactive = no such curve, though single readings can be large or run the other way. A potency beside an inconclusive call is a rough fit, not a confirmed value.
These compounds were tested against DNA polymerase eta (Homo sapiens) (UniProt Q9Y253) (assay: qHTS for Inhibitors of Polymerase Eta). Conditions: recombinant Pol eta, fluorescent DNA replication assay; series mostly up to 114 µM; activity change, negative = inhibition: at the top concentration.
Sequence of UniProt Q9Y253 (Q9Y253 whole entry, looked up): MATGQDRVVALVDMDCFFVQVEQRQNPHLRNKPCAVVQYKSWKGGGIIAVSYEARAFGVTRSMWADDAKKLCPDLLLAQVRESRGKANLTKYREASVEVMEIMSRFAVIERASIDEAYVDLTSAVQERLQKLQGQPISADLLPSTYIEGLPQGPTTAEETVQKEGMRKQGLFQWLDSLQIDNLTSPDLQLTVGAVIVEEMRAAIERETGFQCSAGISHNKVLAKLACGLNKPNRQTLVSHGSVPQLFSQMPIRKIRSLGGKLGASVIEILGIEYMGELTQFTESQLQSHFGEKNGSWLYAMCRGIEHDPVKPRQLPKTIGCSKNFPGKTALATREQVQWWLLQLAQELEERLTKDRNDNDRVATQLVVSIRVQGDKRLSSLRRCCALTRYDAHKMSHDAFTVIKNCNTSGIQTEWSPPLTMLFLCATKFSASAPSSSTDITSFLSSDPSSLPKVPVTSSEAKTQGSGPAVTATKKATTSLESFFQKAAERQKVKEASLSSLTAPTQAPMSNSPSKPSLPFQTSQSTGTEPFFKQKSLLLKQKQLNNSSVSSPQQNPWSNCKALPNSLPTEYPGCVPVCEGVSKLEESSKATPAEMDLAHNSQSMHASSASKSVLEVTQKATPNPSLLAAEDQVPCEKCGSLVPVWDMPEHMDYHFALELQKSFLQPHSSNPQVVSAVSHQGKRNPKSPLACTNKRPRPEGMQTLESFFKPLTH
Method in brief: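 Fluorescent replication assay: 50 nM final substrate added after a 15 min room-temperature compound preincubation with 10 nM enzyme. Signal taken at 0 min and again at 10 min.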
% is scaled to controls: 0 for no effect and ±100 for the full control effect; potency is read from the fitted curve at half-maximal effect; tags tell the direction and shape of the fitted curve.

Row | SMILES | Potency | activity change, negative = inhibition
1 | CCOc1ccc(/C=N/NC(=O)c2cc3c(OC)cc(OC)cc3[nH]2)cc1OC | inconclusive: 25.1 µM [inhibitor, full curve, poor fit] | –
2 | O=C(c1cc(-c2ccco2)nn1-c1cccc(Cl)c1)N1CCCCC1 | active: 17.8 µM | –
3 | Cc1ccccc1C(=O)NNC(=O)c1ccc2nc[nH]c2c1 | inconclusive: 31.6 µM [inhibitor, partial curve, poor fit] | –
4 | O=C(N/N=C/c1ccc(Cl)cc1)c1cc2c(s1)-c1ccccc1CC2 | inconclusive: 31.6 µM [inhibitor, single point] | –
5 | Cc1nc2ccc(C(=O)N/N=C/c3cc([N+](=O)[O-])ccc3O)cc2[nH]1 | inconclusive: 50.1 µM [inhibitor, partial curve, poor fit] | –
6 | CC(=O)c1ccc(NC(=S)N2CCN(CCN3C(=O)c4cccc5cccc(c45)C3=O)CC2)cc1 | inconclusive: 2.51 µM [inhibitor, full curve] | –
7 | CO/N=C/CC(=O)c1ccc([N+](=O)[O-])c(CS(=O)(=O)c2ccc(Cl)cc2)c1 | inconclusive: 79.4 µM [inhibitor, partial curve, poor fit] | –
8 | O=C(Cc1ccccc1)N/N=C/c1cc2c(cc1Cl)OCO2 | inconclusive: 31.6 µM [inhibitor, single point] | –
9 | NNc1nc2c(Cl)c(Cl)ccc2s1 | inconclusive: 15.8 µM [inhibitor, full curve, poor fit] | –
10 | O=C(COc1ccc(/C=N/NC(=O)c2cccnc2)cc1)Nc1ccccc1 | inconclusive: 17.8 µM [inhibitor, full curve, poor fit] | –
11 | CCC(NC(=O)c1ccccc1NC(=O)c1ccc(OC)cc1)C(=O)N1CCCC1 (centres undefined) | – | inactive: 6.26%
12 | COc1ccccc1NNC(=O)C(O)(c1ccccc1)c1ccccc1 | inconclusive: 89.1 µM [inhibitor, partial curve, poor fit] | –
13 | CCN(CC)c1ccc(C2C3CCCCC3(O)CCN2CC(=O)N2CCCCC2)cc1 (centres undefined) | inconclusive: 22.4 µM [inhibitor, partial curve, poor fit] | –
14 | CCCCC1CCC(C(=O)N2CC(=O)Nc3ccc(C)cc3C2c2ccc(F)cc2)CC1 (centres undefined) | – | inactive: -13.9%
15 | Cc1nn(CCCC(=O)Nc2ccccn2)c(C)c1[N+](=O)[O-] | inconclusive: 79.4 µM [inhibitor, partial curve, poor fit] | –
16 | N=C1/C(=C\c2ccc(OC(=O)c3ccccc3)cc2)C(=O)N=C2SC(N3CCOCC3)=NN12 | inconclusive: 50.1 µM [inhibitor, partial curve, poor fit] | –
17 | c1coc(-c2nc(-c3ccco3)c(-c3ccco3)nc2-c2ccco2)c1 | active: 3.98 µM | –
18 | O=Cc1ccc(C(=O)OCC(=O)NC(=O)Nc2ccccc2F)cc1 | inconclusive: 89.1 µM [inhibitor, single point] | –
19 | COc1cc2c(c(OC)c1OC)-c1c(cc3c(c1OC)OCO3)[C@@H](OC(C)=O)[C@H](C)[C@H](C)C2 | inconclusive: 89.1 µM [inhibitor, partial curve, poor fit] | –
20 | O=C(CSc1nnc(-c2cccs2)n1Cc1ccco1)c1ccc2c(c1)OCO2 | inconclusive: 11.2 µM [inhibitor, full curve, poor fit] | –
21 | O=S(=O)(Nc1nc(-c2ccccc2)cs1)c1cc(Cl)ccc1Cl | inconclusive: 79.4 µM [inhibitor, partial curve, poor fit] | –
22 | CNC(=O)c1ccsc1NC(=O)c1ccc(S(=O)(=O)N2CCCc3ccccc32)cc1 | inconclusive: 79.4 µM [inhibitor, partial curve, poor fit] | –

Row | SMILES | Potency | activity change, negative = inhibition
23 | O=C(Nc1ccc(S(=O)(=O)Nc2ncccn2)cc1)c1ccc(N2CCCC2=O)cc1 | active: 44.7 µM | –
24 | O=C(Cc1ccc(Br)cc1)N1CCOCC1 | – | inactive: -16.7%
25 | O=C(NC1CCCC1)c1ccc2nc[nH]c2c1 | – | inactive: -12.7%
26 | CCOc1ccc(-n2c(O)c(/C=N/NC(=O)C3COc4ccccc4O3)c3ccccc3c2=O)cc1 (centres undefined) | inconclusive: 17.8 µM [inhibitor, full curve, poor fit] | –
27 | CC(C)CN(CC(C)C)CC(O)Cn1cc(/C=C/C(=O)c2ccccc2)c2ccccc21 (centres undefined) | inconclusive: 11.2 µM [inhibitor, partial curve, poor fit] | –
28 | CC(=O)Nc1ccc(NC(=O)COC(=O)c2ccc([N+](=O)[O-])o2)cc1 | inconclusive: 22.4 µM [inhibitor, full curve, poor fit] | –
29 | O=C(N/N=C\c1ccncc1)c1ccc(Br)s1 | – | inactive: -9.8%
30 | CCOc1ccc(S(=O)(=O)Nc2ccc3oc4c(c3c2)CC(C)CC4)cc1 (centres undefined) | inconclusive: 2.24 µM [inhibitor, partial curve, poor fit] | –
31 | O=C(COc1ccc(Cl)cc1)NCCSCc1cccc(Cl)c1 | inconclusive: 35.5 µM [inhibitor, partial curve, poor fit] | –
32 | CCOc1cc(-c2noc(-c3ccncc3)n2)cc(Br)c1OC | inconclusive: 7.94 µM [inhibitor, full curve, poor fit] | –
33 | COc1ccc(OC)c(-c2csc(N(C)C(=O)Cc3ccccc3)n2)c1 | inconclusive: 3.55 µM [inhibitor, full curve, poor fit] | –
34 | CN(C)CCC=C1c2ccccc2C=Cc2ccccc21 | inactive | –
35 | CCOc1ccc(S(=O)(=O)Nc2cccc(-c3ccc(N4CCC(C)CC4)nn3)c2)cc1 | – | inactive: -14.2%
36 | CC(C)OCc1cc(CN2CCN(c3cccc(C(F)(F)F)c3)CC2)c(O)c2ncccc12 | – | inactive: 3.31%
37 | COc1cccc2c1cc1c(=O)n(CC(=O)NCc3ccco3)nc(C)n12 | – | inactive: -9.31%
38 | Cc1ccc(-n2c(SCC(=O)NCc3ccco3)nc3nc4c(cc3c2=O)COC(C)(C)C4)cc1 | inconclusive: 15.8 µM [inhibitor, full curve, poor fit] | –
39 | COc1cc2c(cc1OC)n(CC(=O)NC1CCCCCC1)n1c(C)cc(=O)nc21 | inconclusive: 39.8 µM [inhibitor, partial curve] | –
40 | CCCC1=NN2C(=N)/C(=C\c3ccc(SCc4ccco4)o3)C(=O)N=C2S1 | active: 3.55 µM | –
41 | COc1ccc(C(=O)N/N=C/c2sc(=O)n(Cc3cccc(C(=O)O)c3)c2Cl)cc1 | inconclusive: 56.2 µM [inhibitor, partial curve, poor fit] | –
42 | CCCCN(C)C(=O)CSc1nc2ccccc2nc1Cc1ccc(C)cc1 | – | inactive: -22.3%
43 | CC(NC(=O)c1ccc(Cl)c(Cl)c1)c1ccc(-c2ccccc2)cc1 (centres undefined) | inconclusive: 89.1 µM [inhibitor, partial curve, poor fit] | –
44 | Cc1nnc2ccc(-c3ccc(NS(=O)(=O)c4ccc(F)cc4F)cc3)nn12 | inconclusive: 28.2 µM [inhibitor, partial curve, poor fit] | –

Row | SMILES | Potency | activity change, negative = inhibition
45 | CCCN1CCN(CCCNC(=O)C2CCCN(c3nnc(-n4cccc4)s3)C2)CC1 (centres undefined) | inconclusive: 25.1 µM [inhibitor, partial curve] | –
46 | CCOc1ccc(N/C=C/C(=O)c2ccccc2)c([N+](=O)[O-])c1 | – | inactive: -2.02%
47 | CCCCC(=O)Nc1nnc(S(=O)(=O)N(C)Cc2ccccc2)s1 | – | inactive: -18.7%
48 | CC(=O)OCCNc1cc(N2CCN(C)CC2)c2noc3c2c1C(=O)c1ccccc1-3 | – | inactive: -17.6%
49 | CCOC(=O)c1nn(-c2ccc(OCC)cc2)c(C)c1C(C)=O | active: 89.1 µM | –
50 | Cc1cc(C)n(-c2nc3cc(Cl)ccc3nc2N2CCN(c3ccccc3F)CC2)n1 | inconclusive: 89.1 µM [inhibitor, partial curve, poor fit] | –
51 | Nc1nc(N)c2cc(S(=O)(=O)c3ccc4ccccc4c3)ccc2n1 | – | inactive: -3.82%
52 | Cn1c(=NCC(O)COc2ccccc2)sc2ccccc21 (centres undefined) | – | inactive: -19%
53 | CCOC(=O)C1=C(O)/C(=C/c2ccc(OCC(=O)O)c(OC)c2)SC1=Nc1ccc(OCC)cc1 | inconclusive: 14.1 µM [inhibitor, full curve, poor fit] | –
54 | O=C(CSc1nc2c(c(=O)[nH]1)CN(Cc1ccc3c(c1)OCO3)CC2)Nc1ccccc1Cl | inconclusive: 100 µM [inhibitor, partial curve, poor fit] | –
55 | CC(=O)N1CCCc2cc(S(=O)(=O)N3CCCC(C(=O)NCc4ccc(C)cc4)C3)ccc21 (centres undefined) | inactive | –
56 | COCCNC(=O)c1ccc(-c2nc(CS(=O)(=O)c3ccccc3)c(C)o2)cc1 | – | inactive: 4.75%
57 | O=C(Nc1ccc(Cl)cc1)C1CCCCN1S(=O)(=O)c1ccccc1 (centres undefined) | inconclusive: 63.1 µM [inhibitor, partial curve, poor fit] | –
58 | CCOc1ccc2ncc3c(-c4cccc(OC)c4)nn(-c4ccccc4)c3c2c1 | inconclusive: 35.5 µM [inhibitor, full curve] | –
59 | Cc1nc2nc(C)c(CCC(=O)NCc3ccccc3)c(C)n2n1 | – | inactive: -8.44%
60 | Cc1ccc(-n2nc3ccc(NC(=S)NC(=O)/C=C/c4ccco4)cc3n2)cc1 | inconclusive: 28.2 µM [inhibitor, partial curve] | –
61 | CCCCn1c(N)c(N(CCC(C)C)C(=O)COC(=O)c2ccc([N+](=O)[O-])s2)c(=O)[nH]c1=O | inconclusive: 3.98 µM [inhibitor, full curve, poor fit] | –
62 | CCC(C)NC(=O)Cn1c(=O)n(Cc2ccc(C(=O)NCc3ccc(C)cc3)cc2)c(=O)c2ccccc21 (centres undefined) | inconclusive: 89.1 µM [inhibitor, single point] | –
63 | COc1ccc(C(CC(=O)O)c2cc(OC)c(OC)c(OC)c2)cc1OC (centres undefined) | inconclusive: 79.4 µM [inhibitor, partial curve, poor fit] | –
64 | COc1cc(C)c(/C=C/C(C)=C/C=C/C(C)=C/C(=O)O)c(C)c1C | inconclusive: 100 µM [inhibitor, single point] | –

Reference: PubChem BioAssay AID588591 (National Center for Advancing Translational Sciences (NCATS), 2011)
